# Assay results from PubChem BioAssay (EPA / NIEHS).
# For some assays here: The hits were mostly taken out for another list; the other results follow. Results filed as inconclusive are left out. The entries are a selection whose mix differs from that of the whole data set. Some compounds were tested as several samples or in several runs, with calls that do not always agree. Calls of active or inactive are those of the source. The calls were made as follows, unless noted: active = hit-call score of the fitted dose curve at least 0.9, where 1 is the maximum; inconclusive = response in the unintended direction; inactive = score below 0.9.
# How the values were obtained:
# [1] = molecular target: human Retinoic Acid Receptor gamma (RARg), RARG (gene 5916) (UniProt P13631); assay: ATG_RARg_TRANS: Attagene TRANS-FACTORIAL HepG2 Assay for human Retinoic Acid Receptor gamma (RARg) (AID 2283009)
# How it was run: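 TRANS format measured activity of exogenous NR-GAL4 fusion (RARg) in transfected HepG2 liver cells after 24 h dosing. Induced reporter RNA was detected by RT-PCR/capillary electrophoresis fluorescence, analysed in the positive direction against DMSO.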
# [2] = read-out: Urokinase-type plasminogen activator receptor (uPAR), PLAUR (gene 5329); assay: BSK_4H_uPAR: BioMAP Diversity Plus: 4H Assay for Urokinase-type plasminogen activator receptor (uPAR) Biomarker Activity (AID 2283030; active = hit-call score of the fitted dose curve at least 0.9, where 1 is the maximum; inactive = score below 0.9); settings: actives raise or lower the signal; primary human endothelial cells (HUVEC)
# How it was run: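 Human umbilical vein endothelial cells in the 4H system, 24 h after chemical dosing. Cell-surface uPAR measured by ELISA, fitted in both directions versus DMSO; cytotoxicity checked by SRB total protein in parallel cultures.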
# [3] = read-out: Interleukin-1 alpha (IL1a), IL1A (gene 3552); assay: BSK_LPS_IL1a: BioMAP Diversity Plus: LPS Assay for Interleukin-1 alpha (IL1a) Biomarker Activity (AID 2283080; active = hit-call score of the fitted dose curve at least 0.9, where 1 is the maximum; inactive = score below 0.9); settings: actives raise or lower the signal; primary human HUVEC with PBMC
# How it was run: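 Human umbilical vein endothelial cells co-cultured with PBMC and stimulated with LPS; IL-1a measured by ELISA 24 h after dosing. Bidirectional fitting against DMSO; cytotoxicity checked by SRB staining in parallel cultures.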
# [4] = tested on: rat Norepinephrine Transporter (NET), gene 83511; assay: NVS_TR_rNET: NovaScreen (NVS) Transporter Assay for rat Norepinephrine Transporter (NET) (AID 2283373)
# [5] = Tanguay_ZF_120hpf_TR_legacy: (Legacy) Oregon State University Tanguay Lab 120 Hour Post-fertilization zebrafish Assay for Touch Response (AID 2283667)
# SRD5A2 (gene 6716) = assay: CCTE_Deisenroth_5AR_NBTE_ratio: CCTE's 5alpha-reductase NanoBRET Target Engagement Assay - Ratio, Deisenroth Lab (AID 2284322; active = hit-call score of the fitted dose curve at least 0.9, where 1 is the maximum; inactive = score below 0.9); settings: actives raise or lower the signal
# How it was run: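 HEK293T cells transiently expressing an SRD5A2-NanoLuc fusion (20 h post-transfection) were exposed to test chemical (10 nM - 29.9 uM, 8 points) for 3 h, then testosterone tracer for a further 2 h. Acceptor/donor BRET ratio was fitted bidirectionally against DMSO baseline.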
# [6] = molecular target: human RAR-related Orphan Receptor beta (RORb), RORB (gene 6096) (UniProt Q92753); assay: ATG_RORb_TRANS: Attagene TRANS-FACTORIAL HepG2 Assay for human RAR-related Orphan Receptor beta (RORb) (AID 2283010)
# How it was run: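 Transfect HepG2 with multiple GAL4-UAS reporter transcription units; dose chemicals for 24 h; isolate RNA, reverse-transcribe and PCR-amplify reporter sequences; label, digest and resolve fragments by capillary electrophoresis; fit increases relative to DMSO.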
# [7] = molecular target: Retinoic acid receptor RXR-alpha (Homo sapiens) (UniProt P19793); assay: ATG_RXRa_TRANS: Attagene TRANS-FACTORIAL HepG2 Assay for human Retinoid X Receptor alpha (RXRa) (AID 2283012)
# How it was run: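 Measures exogenous chimeric NR-GAL4 activity in transfected HepG2 liver cells after 24 h of dosing. Induced reporter mRNA was detected by RT-PCR with capillary electrophoresis, and gain of signal was analysed against DMSO.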
# [8] = molecular target: Nuclear receptor subfamily 1 group I member 2 (Homo sapiens) (UniProt O75469); assay: ATG_PXR_TRANS: Attagene TRANS-FACTORIAL HepG2 Assay for human Pregnane X Receptor (PXR) (AID 2283008)
# How it was run: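 Transient HepG2 transfectants carrying multiplexed reporter transcription units; PXR activity read through a Gal4 chimera. 24 h exposure. RT-PCR/CE fluorescence; upward curve fit referenced to DMSO.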
# [9] = BSK_BE3C_SRB: Viability Assessment in the BioMAP Diversity Plus: BE3C Assay (AID 2283028; active = hit-call score of the fitted dose curve at least 0.9, where 1 is the maximum; inactive = score below 0.9;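 also: fitted both ways so AC50 may mark signal gain or loss versus DMSO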); settings: primary human bronchial epithelial cells
# How it was run: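 Human bronchial epithelial primary cells in confluent culture, 24 h after chemical dosing; total protein by 0.1% SRB staining after 10% TCA fixation, read at 560 nm. Bidirectional fitting versus DMSO baseline.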
# [10] = read-out: Vascular cell adhesion molecule 1 (VCAM1), VCAM1 (gene 7412); assay: BSK_4H_VCAM1: BioMAP Diversity Plus: 4H Assay for Vascular cell adhesion molecule 1 (VCAM1) Biomarker Activity (AID 2283033; active = hit-call score of the fitted dose curve at least 0.9, where 1 is the maximum; inactive = score below 0.9); settings: actives raise or lower the signal; primary human endothelial cells (HUVEC)
# How it was run: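 Chemicals are added to primary human umbilical vein endothelial cells. After 24 h, VCAM-1 levels are measured by ELISA. Values come from bidirectional fitting referenced to DMSO.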
# [11] = read-out: Epidermal growth factor receptor (EGFR), EGFR (gene 1956); assay: BSK_hDFCGF_EGFR: BioMAP Diversity Plus: hDFCGF Assay for Epidermal growth factor receptor (EGFR) Biomarker Activity (AID 2283057; active = hit-call score of the fitted dose curve at least 0.9, where 1 is the maximum; inactive = score below 0.9); settings: actives raise or lower the signal; primary human foreskin fibroblasts
# How it was run: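 Dosing human primary skin fibroblasts, then measuring surface EGFR by ELISA at 24 h, gives the endpoint; gains and losses relative to DMSO were fitted in both directions.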
# [12] = read-out: Matrix Metallopeptidase 9 (MMP9), MMP9 (gene 4318); assay: BSK_KF3CT_MMP9: BioMAP Diversity Plus: KF3CT Assay for Matrix Metallopeptidase 9 (MMP9) Biomarker Activity (AID 2283074; active = hit-call score of the fitted dose curve at least 0.9, where 1 is the maximum; inactive = score below 0.9;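 also: MMP9 protein level quantified by ELISA in the co-culture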); settings: actives raise or lower the signal; primary human keratinocytes with fibroblasts
# How it was run: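 MMP-9 quantified by ELISA after 24 h chemical treatment of primary human skin keratinocyte/fibroblast co-cultures; gain or loss fitted against DMSO, with parallel SRB staining (0.1% SRB, 560 nm) for overt cytotoxicity.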
# [13] = read-out: E-selectin (Homo sapiens) (UniProt P16581); assay: BSK_SAg_Eselectin: BioMAP Diversity Plus: SAg Assay for Eselectin Biomarker Activity (AID 2283091; active = hit-call score of the fitted dose curve at least 0.9, where 1 is the maximum; inactive = score below 0.9); settings: actives raise or lower the signal; primary human HUVEC with PBMC
# How it was run: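 Human umbilical vein endothelial cells co-cultured with peripheral blood mononuclear cells, SAg system. E-selectin is measured by ELISA 24 h after dosing and fitted bidirectionally against DMSO. Cytotoxicity is checked by SRB staining of parallel cultures.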
# [14] = read-out: Thyroid Hormone Responsive (THRSP), THRSP (gene 7069); assay: LTEA_HepaRG_THRSP: Life Technologies and Expression Analysis (LTEA) Assay for Thyroid Hormone Responsive (THRSP) using HepaRG (AID 2283536; active = hit-call score of the fitted dose curve at least 0.9, where 1 is the maximum; inactive = score below 0.9); settings: actives raise or lower the signal; mRNA level, 48 h
# How it was run: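 THRSP transcript quantified by Fluidigm qRT-PCR against three housekeeping genes after 48 h chemical exposure of HepaRG cells in serum-free induction medium; eight-point half-log series, top 100 uM, 0.5% DMSO vehicle, duplicate wells.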
# [15] = ACEA_AR_agonist_AUC_viability: ACEA Biosciences xCELLigence Real-Time Cell Analysis on Androgen Receptor Agonism for Viability (AID 2283775)
# How it was run: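 22Rv1 cells; impedance growth kinetics; 8-pt 1:4 dilutions from 100 uM top final, ≤0.5% DMSO; n = 2; 80 h read; AUC viability, loss-of-signal vs DMSO.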
# [16] = ACEA_AR_antagonist_AUC_viability: ACEA Biosciences xCELLigence Real-Time Cell Analysis on Androgen Receptor Antagonism for Viability (AID 2283776);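 also: 22Rv1 human prostate cancer cells growing on impedance electrode plates; area under impedance growth curve at 80 h after dosing as viability; hits lower the growth signal relative to DMSO meaning cytotoxicity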
# How it was run: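 Real-time electrical impedance tracks 22Rv1 proliferation after continuous compound exposure (top 100 uM final, 1:4 steps, 8 concentrations). The 80 h area-under-curve serves as the cytotoxicity readout relative to DMSO.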
# [17] = molecular target: human RAR-related Orphan Receptor gamma (RORg), RORC (gene 6097) (UniProt P51449); assay: ATG_RORg_TRANS: Attagene TRANS-FACTORIAL HepG2 Assay for human RAR-related Orphan Receptor gamma (RORg) (AID 2283011)
# How it was run: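 HepG2 cells transiently transfected with GAL4-UAS reporter units and chimeric RORg-Gal4 construct; after 24 h chemical exposure, reporter mRNA measured by RT-PCR with fluorescent capillary electrophoresis, gain of signal fitted against DMSO.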
# [18] = read-out: Matrix Metallopeptidase 1 (MMP1), MMP1 (gene 4312); assay: BSK_BE3C_MMP1: BioMAP Diversity Plus: BE3C Assay for Matrix Metallopeptidase 1 (MMP1) Biomarker Activity (AID 2283024; active = hit-call score of the fitted dose curve at least 0.9, where 1 is the maximum; inactive = score below 0.9); settings: actives raise or lower the signal; primary human bronchial epithelial cells
# How it was run: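 MMP1 signal, measured by ELISA after a 24 h chemical exposure of human primary bronchial epithelial cells, is analysed with bidirectional fitting using DMSO as negative control.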
# [19] = molecular target: human Adenosine A1 Receptor (AdoRA1), ADORA1 (gene 134) (UniProt P30542); assay: NVS_GPCR_hAdoRA1: NovaScreen (NVS) G Protein-Coupled Receptor Assay for human Adenosine A1 Receptor (AdoRA1) (AID 2283254)
# How it was run: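 Membranes from human cortical tissue were incubated with radioligand and test chemical for 1 hour, then filtered and counted. Activity was taken as signal loss relative to DMSO, screened at 25 uM in duplicate before concentration-response follow-up.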
# [20] = TOX21_p53_BLA_p5_viability: Viability Assessment in the Tox21 HCT-116 p53 Agonism Beta-lactamase Assay, Phase 5 (AID 2283600)
# How it was run: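 Decreased CellTiter-Glo luminescence denotes lost viability. Exposure: 16 h at 37C, 5% CO2, with compounds from DMSO stocks diluted 217-fold in wells of 4000 cells.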
# [21] = molecular target: human Retinoid X Receptor beta (RXRb), RXRB (gene 6257) (UniProt P28702); assay: ATG_RXRb_TRANS: Attagene TRANS-FACTORIAL HepG2 Assay for human Retinoid X Receptor beta (RXRb) (AID 2283013)
# How it was run: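 Chimeric receptor-Gal4 activity was assessed in transiently transfected human HepG2 cells after 24 h exposure. Transcripts from GAL4-UAS reporters were quantified by fluorescent RT-PCR and capillary electrophoresis, with DMSO as negative control and baseline.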
# Chain of UniProt O75469 (O75469 whole entry, looked up, the tested form may be a part): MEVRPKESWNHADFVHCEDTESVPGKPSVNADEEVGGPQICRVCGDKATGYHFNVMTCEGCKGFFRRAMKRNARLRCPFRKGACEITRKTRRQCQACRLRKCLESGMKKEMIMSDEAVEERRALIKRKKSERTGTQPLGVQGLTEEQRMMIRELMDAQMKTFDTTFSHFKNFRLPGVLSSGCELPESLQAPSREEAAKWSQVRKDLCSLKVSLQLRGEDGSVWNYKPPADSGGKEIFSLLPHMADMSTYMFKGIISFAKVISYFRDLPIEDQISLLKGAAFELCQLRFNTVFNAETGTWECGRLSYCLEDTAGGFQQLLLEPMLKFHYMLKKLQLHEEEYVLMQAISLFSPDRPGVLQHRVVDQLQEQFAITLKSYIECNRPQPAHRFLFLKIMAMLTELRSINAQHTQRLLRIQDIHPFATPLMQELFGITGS
# Chain of UniProt P19793 (P19793 whole entry, looked up, the tested form may be a part): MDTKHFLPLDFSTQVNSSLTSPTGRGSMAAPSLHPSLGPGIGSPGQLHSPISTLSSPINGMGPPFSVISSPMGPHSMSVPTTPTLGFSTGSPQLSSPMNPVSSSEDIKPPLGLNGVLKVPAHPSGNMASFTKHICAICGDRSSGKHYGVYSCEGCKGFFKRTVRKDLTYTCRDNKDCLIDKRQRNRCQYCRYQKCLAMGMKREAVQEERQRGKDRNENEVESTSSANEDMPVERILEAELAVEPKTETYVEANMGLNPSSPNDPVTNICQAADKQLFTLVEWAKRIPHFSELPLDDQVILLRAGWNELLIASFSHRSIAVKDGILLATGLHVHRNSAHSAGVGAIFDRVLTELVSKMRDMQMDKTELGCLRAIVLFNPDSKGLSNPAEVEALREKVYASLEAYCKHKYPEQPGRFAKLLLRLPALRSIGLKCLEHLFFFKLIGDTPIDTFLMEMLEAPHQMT
# Chain of UniProt P28702 (P28702 whole entry, looked up, the tested form may be a part): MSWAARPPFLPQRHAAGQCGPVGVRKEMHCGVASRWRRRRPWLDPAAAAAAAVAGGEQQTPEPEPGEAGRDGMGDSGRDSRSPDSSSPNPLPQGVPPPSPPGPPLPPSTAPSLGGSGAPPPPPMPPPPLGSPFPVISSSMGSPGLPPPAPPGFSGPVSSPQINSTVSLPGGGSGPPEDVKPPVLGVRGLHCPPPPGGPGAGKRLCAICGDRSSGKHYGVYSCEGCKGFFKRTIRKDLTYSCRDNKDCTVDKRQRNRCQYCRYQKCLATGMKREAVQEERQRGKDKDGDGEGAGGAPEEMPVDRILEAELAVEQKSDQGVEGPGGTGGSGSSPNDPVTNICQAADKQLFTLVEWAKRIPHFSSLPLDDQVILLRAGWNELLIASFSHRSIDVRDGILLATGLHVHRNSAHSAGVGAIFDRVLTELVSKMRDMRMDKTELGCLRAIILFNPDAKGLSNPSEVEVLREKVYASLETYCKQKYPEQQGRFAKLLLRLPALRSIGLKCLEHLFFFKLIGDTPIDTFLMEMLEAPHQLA
# Chain of UniProt Q92753 (Q92753 whole entry, looked up, the tested form may be a part): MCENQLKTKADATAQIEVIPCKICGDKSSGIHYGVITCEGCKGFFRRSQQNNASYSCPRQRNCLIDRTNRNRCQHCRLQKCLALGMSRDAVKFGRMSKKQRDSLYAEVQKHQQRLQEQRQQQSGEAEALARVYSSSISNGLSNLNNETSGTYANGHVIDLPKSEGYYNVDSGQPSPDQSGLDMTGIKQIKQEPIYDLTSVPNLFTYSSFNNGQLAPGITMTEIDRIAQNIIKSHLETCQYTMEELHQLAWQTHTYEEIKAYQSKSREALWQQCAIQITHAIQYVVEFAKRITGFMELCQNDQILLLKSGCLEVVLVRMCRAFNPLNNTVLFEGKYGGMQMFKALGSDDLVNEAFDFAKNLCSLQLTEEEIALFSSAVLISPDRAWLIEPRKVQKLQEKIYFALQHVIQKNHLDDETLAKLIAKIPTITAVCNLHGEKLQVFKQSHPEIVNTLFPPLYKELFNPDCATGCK
# Chain of UniProt P16581 (P16581 whole entry, looked up): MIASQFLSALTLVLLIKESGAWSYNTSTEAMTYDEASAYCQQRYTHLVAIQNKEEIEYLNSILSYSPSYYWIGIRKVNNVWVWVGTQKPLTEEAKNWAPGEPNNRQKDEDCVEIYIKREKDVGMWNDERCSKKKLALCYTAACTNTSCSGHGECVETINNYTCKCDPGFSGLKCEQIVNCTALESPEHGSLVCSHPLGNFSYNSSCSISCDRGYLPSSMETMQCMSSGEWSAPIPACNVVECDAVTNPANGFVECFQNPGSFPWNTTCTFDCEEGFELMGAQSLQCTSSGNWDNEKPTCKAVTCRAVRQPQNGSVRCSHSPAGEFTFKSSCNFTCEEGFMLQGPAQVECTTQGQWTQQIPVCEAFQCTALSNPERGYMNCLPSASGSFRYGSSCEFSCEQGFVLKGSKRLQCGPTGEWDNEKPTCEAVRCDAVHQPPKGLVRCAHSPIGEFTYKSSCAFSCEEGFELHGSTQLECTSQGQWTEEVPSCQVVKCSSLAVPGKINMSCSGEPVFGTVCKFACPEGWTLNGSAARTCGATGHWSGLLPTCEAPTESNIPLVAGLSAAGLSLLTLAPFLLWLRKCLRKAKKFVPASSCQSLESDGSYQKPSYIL
# Chain of human Retinoic Acid Receptor gamma (RARg), RARG (gene 5916) (P13631 whole entry, looked up, the tested form may be a part): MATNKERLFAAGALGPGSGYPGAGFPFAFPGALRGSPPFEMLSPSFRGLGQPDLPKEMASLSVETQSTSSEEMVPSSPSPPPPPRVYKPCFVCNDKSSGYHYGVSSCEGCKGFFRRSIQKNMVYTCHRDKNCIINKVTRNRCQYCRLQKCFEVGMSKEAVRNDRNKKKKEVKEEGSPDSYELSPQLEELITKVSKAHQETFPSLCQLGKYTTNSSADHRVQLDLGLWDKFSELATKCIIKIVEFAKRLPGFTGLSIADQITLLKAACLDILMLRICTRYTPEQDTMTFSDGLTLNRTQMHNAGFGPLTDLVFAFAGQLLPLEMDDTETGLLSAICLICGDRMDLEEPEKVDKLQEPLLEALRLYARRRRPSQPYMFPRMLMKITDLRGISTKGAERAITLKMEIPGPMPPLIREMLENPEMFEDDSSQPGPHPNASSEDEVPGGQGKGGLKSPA
# Chain of UniProt P30542 (P30542 whole entry, looked up): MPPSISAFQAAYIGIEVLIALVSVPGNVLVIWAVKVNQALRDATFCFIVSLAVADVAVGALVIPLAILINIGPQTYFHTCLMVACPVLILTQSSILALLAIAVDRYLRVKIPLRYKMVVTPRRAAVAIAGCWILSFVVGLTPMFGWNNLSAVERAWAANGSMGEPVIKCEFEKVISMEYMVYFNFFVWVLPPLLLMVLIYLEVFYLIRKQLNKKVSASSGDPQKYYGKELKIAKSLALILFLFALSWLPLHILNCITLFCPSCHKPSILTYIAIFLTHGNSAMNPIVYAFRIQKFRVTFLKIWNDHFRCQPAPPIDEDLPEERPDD
# Chain of UniProt P51449 (P51449 whole entry, looked up, the tested form may be a part): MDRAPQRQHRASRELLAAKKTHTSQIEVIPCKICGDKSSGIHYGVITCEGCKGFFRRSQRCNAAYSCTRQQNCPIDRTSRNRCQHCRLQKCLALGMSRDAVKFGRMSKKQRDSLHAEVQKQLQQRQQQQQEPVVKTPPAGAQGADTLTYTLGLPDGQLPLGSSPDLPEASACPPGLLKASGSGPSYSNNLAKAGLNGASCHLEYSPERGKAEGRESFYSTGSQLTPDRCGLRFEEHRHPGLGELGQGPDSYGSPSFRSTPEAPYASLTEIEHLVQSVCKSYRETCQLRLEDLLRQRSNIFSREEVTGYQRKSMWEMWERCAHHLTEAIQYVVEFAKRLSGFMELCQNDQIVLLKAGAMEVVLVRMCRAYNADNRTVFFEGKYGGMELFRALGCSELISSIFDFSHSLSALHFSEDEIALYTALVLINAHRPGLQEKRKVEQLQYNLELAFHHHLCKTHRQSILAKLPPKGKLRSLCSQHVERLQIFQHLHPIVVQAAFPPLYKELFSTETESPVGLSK
structure (smiles),measurement,setting,value
Nc1ccc(Nc2ccccc2)cc1,outcome,[1],inactive
same,AC50,[2],active: 1.79 µM
same,AC50,[3],active: 20 µM
same,AC50,[4],active: 16.3 µM
same,AC50,[5],active: 44.6 µM
same,AC50,SRD5A2 (gene 6716),active: 20.1 µM
CCCCCCOc1ccc(O)cc1,outcome,[6],inactive
same,outcome,[7],inactive
Cc1ccc2sc3cccc(C)c3c2c1,outcome,[8],inactive
CC[C@H](C)C(=O)O[C@H]1C[C@@H](C)C=C2C=C[C@H](C)[C@H](CC[C@@H]3C[C@@H](O)CC(=O)O3)[C@H]21,outcome,[7],inactive
same,AC50,[9],active: 35.1 µM
same,AC50,[10],active: 34.5 µM
same,AC50,[11],active: 31.2 µM
same,AC50,[12],active: 30.5 µM
same,AC50,[13],active: 0.358 µM
same,AC50,[14],active: 21 µM
CCC(C)NC(N)=O (centres undefined),outcome,[8],inactive
O=C(c1ccccc1)c1ccc(O)cc1O,outcome,[7],inactive
same,outcome,[15],inactive
same,outcome,[16],inactive
CC(O)C(=O)O (centres undefined),outcome,[17],inactive
CN(C)c1ccc(C(=C2C=CC(=[N+](C)C)C=C2)c2ccccc2)cc1,AC50,[8],active: 1.46 µM
same,AC50,[18],active: 1.04 µM
same,AC50,[19],active: 19.3 µM
same,AC50,[20],active: 1.48 µM
CC(O)C#CC(C)O (centres undefined),outcome,[6],inactive
O=S(=O)(O)c1ccc(N=Nc2c(O)ccc3ccccc23)cc1,outcome,[8],inactive
C[C@H]1C[C@@H](O)CC(C)(C)C1,outcome,[21],inactive
Clc1cc(Cl)c(Cl)cc1Cl,AC50,[21],active: 61.4 µM
